From PubChem BioAssay AID504832 (National Center for Advancing Translational Sciences (NCATS), 2011)
Hit rate of the full screen: of about 310,000 compounds, about 18,000 (5.8%) were called active. This list was built around the results that the source calls inconclusive (neither active nor inactive); the mix of calls is not that of the screen. Calls come from the whole dose curve; as a rule, active = well fitted inhibition curve with a large enough effect; inconclusive = small, poorly fitted or top-dose-only effect, or another doubt; inactive = no such curve, though single readings can be large or run the other way. Potencies of inconclusive entries are left out as doubtful fits.

Assay: Primary qHTS for delayed death inhibitors of the malarial parasite plastid, 48 hour incubation
Details: P. falciparum luciferase growth in erythrocytes; series mostly up to 28.7 µM
Summary of the method: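 Here the parasites carry a stable luciferase gene and grow inside erythrocytes in Albumax-based RPMI medium with compound for one erythrocytic cycle. Activity is scored as loss of luminescent signal.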
Potency is the fitted concentration of half-maximal effect; tags give direction and shape of the fitted curve.

| SMILES | Potency |
| --- | --- |
| COc1ccc(N2CC(C(=O)NCCc3ccc(OC)c(OC)c3)CC2=O)cc1 (stereo not given) | inactive |
| Cc1cccc(N(C(=O)CCC(=O)Nc2cc(C)on2)C(C(=O)NC2CCCC2)c2ccc(C)o2)c1 (stereo not given) | inconclusive [inhibitor, partial curve, poor fit] |
| O=C(Nc1cc(S(=O)(=O)N2CCCC2)ccc1OCC(F)(F)F)c1ccccc1F | inactive |
| COC(=O)C1=C(c2cccc(C#N)c2)C[C@@H]2CC[C@H]1N2C(=O)NCCc1ccccc1 | inconclusive [inhibitor, single point] |
| CCSc1nnc(NC(=O)CCNS(=O)(=O)c2cc(Br)cnc2N)s1 | inconclusive [inhibitor, partial curve] |
| COc1cc2c(cc1OC)CN(C(=O)COc1ccc(C)c(C)c1)CC2 | inconclusive [inhibitor, single point] |
| COCc1cc(C)nc(SCC[N+](C)(C)CC(=O)c2ccc(Br)cc2)c1C#N | inconclusive [inhibitor, single point] |
| Oc1ccc(C[C@H]2CNCCN2CCc2cccc(F)c2)cc1 | inconclusive [inhibitor, single point] |
| Cc1cccc(NC(=O)NCc2ccc3c(c2)cc(C)n3C)c1 | inconclusive [inhibitor, single point] |
| Cc1ccc(S(=O)(=O)CCC(=O)Nc2ccccc2C)cc1 | inactive |
| CCc1cccc(C)c1NC(=S)NCCc1c(C)[nH]c2ccc(C)cc12 | inconclusive [inhibitor, partial curve] |
| CCOP(=O)(OCC)C(C#N)=C1SCN(c2ccc(Cl)cc2)CS1 | inconclusive [inhibitor, single point] |
| Clc1ccccc1Nc1nc(-c2ccncc2)nc2ccccc12 | active: 13.1 µM |
| COc1ccc(N2CCN(C(CNC(=O)C(=O)NCCCn3ccnc3)c3ccco3)CC2)cc1 (stereo not given) | inconclusive [inhibitor, partial curve, poor fit] |
| CC(NC(=O)c1cn(C(C)c2ccccc2F)nn1)c1ccncc1 (stereo not given) | inactive |
| CC[n+]1c(/C=C/Nc2ccccc2)oc2ccccc21 | inconclusive [inhibitor, partial curve, poor fit] |
| Cc1cccc(N2CCN(C(c3ccc(N(C)C)cc3)c3nnnn3C(C)(C)C)CC2)c1C (stereo not given) | inconclusive [inhibitor, partial curve, poor fit] |
| CCOc1ccc(/C=N/NC(=O)c2ccc(Cn3cc([N+](=O)[O-])cn3)o2)cc1 | inactive |
| O=C(C1=C(O)C(=O)N(CCN2CCOCC2)C1c1ccc(Cl)cc1)c1cc2ccccc2o1 (stereo not given) | inconclusive [inhibitor, single point] |
| Cn1c(SCC(=O)Nc2nccs2)nnc1-c1ccccn1 | inconclusive [inhibitor, partial curve, poor fit] |
| COc1ccc(C2c3ccc(O)cc3Oc3ncn(Cc4ccco4)c(=N)c32)cc1OC (stereo not given) | inconclusive [inhibitor, single point] |
| COc1ccc2nc(SC)c(C#N)cc2c1 | inactive |
| COc1cccc(CN(C)C(=O)CN2C(=O)NC(c3ccccc3)(c3ccccc3)C2=O)c1OC | inconclusive [inhibitor, partial curve, poor fit] |

| SMILES | Potency |
| --- | --- |
| CCOC(=O)c1oc2c(CN3CCCCC3C)c(O)ccc2c(=O)c1-c1ccc(OC)c(OC)c1 (stereo not given) | inconclusive [inhibitor, partial curve] |
| CC1CC(N(C(=O)c2ccco2)c2ccccc2)c2ccccc2N1 (stereo not given) | inconclusive [inhibitor, partial curve] |
| COc1ccc2nc(Cl)c(C#N)cc2c1 | inactive |
| O=c1oc2ccccc2n1Cc1ccccc1 | inactive |
| Cc1cc(O)c(C(=O)/C=C/c2ccc(Cl)cc2)c(=O)o1 | inconclusive [inhibitor, partial curve] |
| Cc1ccc2nc(-c3ccncc3)c(Nc3ccccc3)n2c1 | inconclusive [inhibitor, partial curve] |
| O=C1CSC(c2ccccc2)N1c1cccnc1 (stereo not given) | inactive |
| Cc1nnsc1S(=O)(=O)c1ccccc1 | inactive |
| O=C(c1ccc([N+](=O)[O-])s1)N1CCc2ccccc2C1 | inconclusive [inhibitor, single point] |
| CC(=O)c1ccccc1NC(=O)COC(=O)c1c(C)nn(-c2ccccc2)c1C | inactive |
| O=C(NC1=NCCCCC1)c1cccc2ccccc12 | inactive |
| COc1ccc(OC)c(S(=O)(=O)NCC(c2ccco2)N2CCc3ccccc3C2)c1 (stereo not given) | inconclusive [inhibitor, single point] |
| COc1ccc(CN(C)CC(O)COC(c2ccccc2)c2ccccc2)c(OC)c1OC (stereo not given) | active: 10.4 µM |
| O=C(N/N=C/c1ccco1)c1ccccn1 | inactive |
| CCOc1ccc(N(CC(=O)N2CCOCC2)S(=O)(=O)c2ccc(F)cc2)cc1 | inactive |
| CCOC(=O)c1ccc2c(c1)n(CC)c(/C=C/Nc1ccccc1)[n+]2CC | inconclusive [inhibitor, partial curve] |
| CCOc1ccc(NC(=O)COc2ccc(C(=O)NCc3cccc(OC)c3)cc2OC)cc1 | inconclusive [inhibitor, partial curve, poor fit] |
| CCOC(=O)Nc1ccccc1C(=O)Nc1cc(C)cc(C)c1 | inconclusive [inhibitor, single point] |
| O=C(Nc1ccc(Cl)c(-c2nc3ccccc3[nH]2)c1)c1cccnc1 | inconclusive [inhibitor, single point] |
| COc1ccc(CCNC(=O)c2cc(-c3cc(C)c(C)cc3O)n[nH]2)cc1OC | inconclusive [inhibitor, partial curve] |
| COc1ccc(Cl)cc1Nc1nc(C)nc2c1nnn2Cc1ccccc1 | inactive |
| CCOC(=O)[C@@H]1[C@H]2COc3cc(OC)ccc3[C@H]2N2C(=O)N(c3ccc(C)cc3)C(=O)[C@@]12C | inconclusive [inhibitor, partial curve, poor fit] |
